This test concerns the target T1, human IGFBP-1 (human, UniProt P08833 26-259).
T1 construct: mature
T1 sequence (looked up): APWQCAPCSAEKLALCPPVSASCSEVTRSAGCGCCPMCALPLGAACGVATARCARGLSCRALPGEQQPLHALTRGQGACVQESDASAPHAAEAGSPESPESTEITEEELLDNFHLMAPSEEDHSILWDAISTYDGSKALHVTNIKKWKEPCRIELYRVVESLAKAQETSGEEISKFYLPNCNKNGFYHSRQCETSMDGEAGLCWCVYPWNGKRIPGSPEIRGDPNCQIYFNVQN
The test can be described thus: competitive phage ELISA. The procedure: Phage particles were harvested and resuspended in PBS buffer as described in Lowman, H. B., "Phage Display of Peptide Libraries on Protein Scaffolds," in Cabilly, S. (ed.), *Combinatorial Peptide Library Protocols* (Humana Press Inc.: Totowa, N.J., 1998), pp. 249–264. Then phage concentrations were normalized to yield a maximal ELISA signal of 0.2–0.4 for each mutant (Lowman, in Cabilly, S. (ed.), supra). Threefold serial dilutions of soluble competitor were prepared on non-absorbent microtiter plates (Nunc, F, 96 wells) with binding buffer (0.5% TWEEN™ 20/PBS) containing phage at the previously-determined concentrations. […] After blocking, the plates containing immobilized target were washed with 0.05% TWEEN™/PBS buffer and subsequently incubated with 80 μl/well of the premixed phage-competitor solutions for 1 hour at room temperature. […] Numbers in Table I represent mean±standard deviation of individually assessed $IC50$ values.
At least two different clones of every mutant were tested.
Background: An ELISA detects its analyte on a solid surface through an enzyme-linked reagent.

Here are results for 1 molecule from US6509443.

B1: IGF-I S1A on phage (G1S-A70V background, gene III fusion) (ligand, bacteriophage M13)
chain: [letters of about 80 residues with changes not shown]SGGGSGSGDFDYEKMANANKGAMTENADENALQSDAKGKLDSVATDYGAAIDGFIGDVSGLANGNGATGDFAGSNSQMAQVGDGDNSPLMNNFRQYLPSLPQSVECRPFVFSAGKPYEFSIDCDKINLFRGVFAFLLYVATFMYVFSTFANILRNKES
notes: range […]; monovalent on M13 phage
As for B1, the binding result was “binds”.
